Reference: the supplement of paper PMC7826260
The list shows a part of the results. Cleavage of a single-stranded DNA pool by Rep nickase domains was read by sequencing at 3 µM enzyme and 37 °C for 1 h; the strands have 90 letters, of which the middle is given. Uncut reads are compared with the no-enzyme pool on a log2 scale; the lower, the more was cut; hits are not called. The scaling is to total reads; uncut strands gain when others are lost, and binding without cutting may add a little.

What was measured:
Test in all cases: uncleaved DNA left, log2 of reads against the no-enzyme library (log2 ratio); higher = less cleavage (more negative = more Rep cleavage of the k-mer); sequences stand for … in CTCGTCCG…ACCGGAGA
[1] = test system: T1, Rep nickase domain of Muscovy duck circovirus
T1 sequence (Rep 1-111, printed without the tag): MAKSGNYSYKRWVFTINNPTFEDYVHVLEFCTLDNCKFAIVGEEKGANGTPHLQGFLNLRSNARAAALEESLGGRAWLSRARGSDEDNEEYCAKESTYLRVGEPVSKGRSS
Method: (§1)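 A pool of 90-nt single-stranded DNAs with seven random bases just before the constant AC of the nick site (name = the seven bases) was cut by 3 µM recombinant His6-SUMO-tagged Rep nickase domain (300 nM DNA, 50 mM HEPES pH 8.0, 50 mM NaCl, 1 mM MnCl2, 1 h, 37 °C, three replicates). Uncut DNA was amplified and sequenced.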

[2] = test system: T2, Rep nickase domain of banana bunchy top virus
T2 sequence (Rep 1-94, printed without the tag): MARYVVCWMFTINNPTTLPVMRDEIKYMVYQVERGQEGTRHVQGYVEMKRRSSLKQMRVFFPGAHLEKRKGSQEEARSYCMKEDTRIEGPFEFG
Method: as §1

[3] = test system: T3, Rep nickase domain of cabbage leaf curl virus
T3 sequence (Rep 1-116, printed without the tag): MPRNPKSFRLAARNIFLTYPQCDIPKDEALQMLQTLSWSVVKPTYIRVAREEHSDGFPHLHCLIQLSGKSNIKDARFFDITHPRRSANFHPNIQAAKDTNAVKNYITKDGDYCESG
Method: as §1

[4] = test system: T4, Rep nickase domain of chickpea chlorotic dwarf virus
T4 sequence (Rep 1-124, printed without the tag): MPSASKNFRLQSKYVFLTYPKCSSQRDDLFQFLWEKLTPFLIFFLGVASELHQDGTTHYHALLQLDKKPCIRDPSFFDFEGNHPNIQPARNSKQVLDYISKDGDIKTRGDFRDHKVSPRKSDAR
Method: as §1

[5] = test system: T5, Rep nickase domain of faba bean necrotic yellows virus
T5 sequence (Rep 1-98, printed without the tag): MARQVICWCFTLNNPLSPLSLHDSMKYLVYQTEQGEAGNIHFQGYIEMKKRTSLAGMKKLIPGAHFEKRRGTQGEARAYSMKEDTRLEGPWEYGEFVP
Method: as §1

[6] = test system: T6, Rep nickase domain of maize striate mosaic virus
T6 sequence (Rep 1-117, printed without the tag): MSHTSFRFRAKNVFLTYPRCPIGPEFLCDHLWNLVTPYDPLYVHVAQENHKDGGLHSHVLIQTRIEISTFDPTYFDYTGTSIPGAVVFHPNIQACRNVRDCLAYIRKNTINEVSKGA
Method: as §1

[7] = test system: T7, Rep nickase domain of porcine circovirus 2
T7 sequence (Rep 2-116, printed without the tag): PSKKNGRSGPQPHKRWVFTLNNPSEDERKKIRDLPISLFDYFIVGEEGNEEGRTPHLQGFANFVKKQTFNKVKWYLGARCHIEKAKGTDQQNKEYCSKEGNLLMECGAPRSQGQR
Method: as §1

[8] = test system: T8, Rep nickase domain of tomato golden mosaic virus
T8 sequence (Rep 1-124, printed without the tag): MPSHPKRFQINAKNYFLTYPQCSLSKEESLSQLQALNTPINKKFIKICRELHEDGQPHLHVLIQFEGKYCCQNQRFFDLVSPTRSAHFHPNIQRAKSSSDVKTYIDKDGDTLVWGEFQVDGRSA
Method: as §1

[9] = test system: T9, Rep nickase domain of tomato yellow leaf curl virus
T9 sequence (Rep 1-136, printed without the tag): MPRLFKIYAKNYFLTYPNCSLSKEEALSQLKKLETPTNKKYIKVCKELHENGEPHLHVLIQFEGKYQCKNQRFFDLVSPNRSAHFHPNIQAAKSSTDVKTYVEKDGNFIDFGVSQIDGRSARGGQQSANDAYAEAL
Method: as §1

[10] = test system: T10, Rep nickase domain of wheat dwarf virus
T10 sequence (Rep 1-137, printed without the tag): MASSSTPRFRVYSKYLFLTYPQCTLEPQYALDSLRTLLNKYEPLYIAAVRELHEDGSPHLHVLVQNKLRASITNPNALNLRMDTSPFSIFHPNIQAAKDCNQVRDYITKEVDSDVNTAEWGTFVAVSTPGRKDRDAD
Method: as §1

| Sequence | uncleaved DNA left (log2) [1] | uncleaved DNA left (log2) [2] | uncleaved DNA left (log2) [3] | uncleaved DNA left (log2) [4] | uncleaved DNA left (log2) [5] | uncleaved DNA left (log2) [6] | uncleaved DNA left (log2) [7] | uncleaved DNA left (log2) [8] | uncleaved DNA left (log2) [9] | uncleaved DNA left (log2) [10] |
| --- | --- | --- | --- | --- | --- | --- | --- | --- | --- | --- |
| CAGGATT | -0.143 | -0.12 | 0.179 | 1.25 | -0.0279 | 1.63 | -0.404 | 0.0777 | -0.13 | -0.0442 |
| GCAGATT | 0.0707 | -0.222 | -0.0518 | -1.47 | -0.0117 | 0.12 | -0.357 | -0.138 | -0.14 | -0.221 |
| AACTTGT | -1.29 | -0.462 | -0.378 | -1.13 | -0.0955 | -0.992 | -3.55 | -0.118 | 0.0397 | -0.0747 |
| AGGACTG | -0.0109 | -0.0161 | 0.0225 | 0.626 | -0.0465 | 1.73 | -0.0701 | 5.04e-05 | -0.109 | 0.0989 |
| GATGTAG | -0.101 | -0.243 | -0.799 | -0.76 | -0.0737 | -1.09 | -0.00979 | -0.0295 | -0.0251 | -0.163 |
| AGCTGCA | 0.0424 | 0.00784 | 0.0344 | 0.69 | 0.0581 | 0.393 | 0.153 | 0.0104 | 0.00517 | 0.0694 |
| CTCCCCT | 0.0256 | -0.0346 | -0.0158 | -1.64 | 0.0436 | -0.362 | -0.0862 | -0.00292 | 0.104 | 0.0082 |
| CGTGTTG | -0.0682 | -0.0337 | -0.275 | -0.232 | -0.113 | -0.508 | 0.102 | -0.0895 | -0.0712 | -0.187 |
| GGGATGA | 0.159 | 0.172 | 0.939 | 2.15 | 0.0362 | 2.3 | 0.262 | 0.13 | 0.0345 | 0.149 |
| TGCCGTC | -0.0179 | -0.184 | -0.0274 | -0.252 | -0.167 | -0.489 | -0.128 | -0.192 | -0.175 | -0.244 |
| TCCCAAA | -0.108 | 0.134 | 0.251 | 0.154 | 0.0539 | -0.223 | 0.168 | 0.0511 | 0.209 | 0.172 |
| CCGAGCT | 0.148 | 0.203 | 0.192 | 0.765 | 0.127 | 0.534 | -0.0221 | 0.0917 | 0.015 | -0.124 |
| CGAACGC | 0.0833 | -0.011 | 0.028 | 0.0206 | 0.0406 | -0.214 | 0.0751 | 0.00865 | 0.0207 | 0.0634 |
| ACTGAGG | -0.0575 | 0.1 | -0.472 | -0.328 | -0.0791 | -1.04 | 0.0796 | -0.0531 | -0.0141 | -0.0765 |
| TGGCACG | 0.0662 | 0.0508 | -0.476 | -0.488 | 0.0236 | -0.757 | 0.132 | -0.0469 | -0.0628 | -0.147 |
| AAGCTTA | -0.0586 | -0.0539 | -0.0896 | -1.36 | 0.000609 | 0.571 | -0.638 | -0.0373 | -0.0788 | -0.125 |
| ACCCAGC | -0.031 | -0.0221 | -0.485 | -0.508 | -0.142 | -0.971 | 0.196 | -0.0308 | -0.0965 | -0.088 |
| TAAGGAG | 0.0697 | 0.0515 | 0.078 | 1.03 | 0.151 | 0.542 | 0.197 | 0.133 | 0.0115 | 0.0714 |
| AACTGCC | -0.0664 | -0.084 | -0.194 | 0.0503 | 0.0295 | -0.438 | -0.1 | -0.158 | -0.0977 | -0.0292 |
| CGCATAG | 0.105 | 0.0826 | -0.548 | -0.351 | 0.0123 | -0.975 | 0.197 | 0.0997 | 0.194 | 0.0207 |
| AACAATA | -0.017 | 0.0355 | -0.272 | -2.74 | 0.0208 | -0.88 | -0.08 | 0.102 | -0.0265 | 0.0752 |
| CTAGGAA | 0.0461 | 0.0853 | 0.394 | 1.36 | 0.0596 | 1.38 | 0.116 | 0.137 | -0.0245 | 0.113 |
| CCCAGGC | 0.0448 | 0.157 | 0.106 | 0.237 | -0.0447 | -0.517 | 0.0474 | 0.108 | 0.0638 | 0.00595 |
| CTTCTCA | -0.136 | -0.0462 | -0.23 | -1.07 | -0.176 | -0.695 | -0.2 | -0.22 | -0.0454 | -0.0293 |
| TGATAGT | -3.32 | -0.122 | -0.294 | -1.59 | 0.0119 | -0.77 | -3.38 | -0.0119 | -0.0453 | -0.268 |
| CTACTCT | -0.0486 | -0.0945 | -0.42 | -2.78 | -0.124 | -0.712 | -0.223 | -0.0632 | -0.0231 | -0.124 |
| GCGGGAA | 0.0469 | 0.129 | 0.658 | 1.43 | 0.213 | 1.76 | 0.181 | -0.0353 | 0.0189 | 0.0987 |
| GAATCTG | 0.0762 | 0.0808 | 0.0952 | 0.56 | 0.0506 | 0.941 | 0.0525 | 0.0667 | -0.0131 | 0.0766 |
| TATTCTG | -0.526 | -0.0948 | -0.0952 | -0.132 | 0.058 | -0.201 | -0.0165 | -0.0517 | -0.0651 | -0.0374 |
| AACGGTG | 0.00796 | -0.0398 | -0.157 | -0.0567 | -0.0274 | -0.333 | 0.131 | -0.00955 | -0.124 | -0.0768 |
